# From patent US20240390337A1, “RELA/RSH INHIBITORS FOR THE TREATMENT OR PREVENTION OF MEDICAL BIOFILMS” (DREXEL UNIVERSITY, priority 2021, published 2024)
# Tested on: E. coli C
# Assay: E. coli C aggregation assay
# Conditions: high salt, low temperature, amino acid starvation
# Text: Previously determined by Krol et al., E. coli C, under certain stress conditions, aggregates together and forms biofilms from a planktonic culture. This process is proposed to work under a CsrA stress response. In the case of E. coli C, the level of CsrA expression is lower due to the presence of an insertion sequence in its promoter. Because RelA is essential in the production of (p)ppGpp in inducing CsrA stress response, it was hypothesized that inhibition of RelA would limit aggregation of E. coli C. […] This aggregation process is proposed to be controlled by the CsrA/NhaR mechanism through overproduction of polysaccharide adhesin poly-β-1,6-N-acetyl-d-glucosamine (FIG. 31). However, more studies need to be performed to confirm RelA and (p)ppGpp involvement in the aggregation effect, including in the ΔrelA E. coli C mutant.
# E. coli C was grown in LB Miller broth at 30° C. with shaking (250 rpm) with or without compounds. E. coli C ΔrelA mutant was also grown as a control. One milliliter of the culture was transferred to standard polypropylene spectrophotometer cuvettes to measure planktonic cells densities (OD600). Remaining cultures were vortexed ˜1 min and 1 mL was aliquoted into cuvettes to measure the total cell densities (OD600). Aggregation was calculated as a ratio of planktonic to total cell density.
compound,measurement,value
"O=C(O)CCNC(=O)c1cccc(-n2cc(Br)cn2)c1 [Compound C22, 3-(3-(4-bromo-1H-pyrazol-1-yl)benzamido)propanoic acid]",E. coli C aggregation,reduced the amount of E. coli C aggregation
